Measured values as given in PubChem BioAssay AID1508623 (National Center for Advancing Translational Sciences (NCATS), 2021).
The whole screen tested about 48,000 compounds, of which about 450 (0.94%) were called active. Another 19% or so got no clear call; they are omitted. The call rests on the fitted dose curve; in most records, active means well fitted inhibition curve with a large enough effect; inconclusive means small, poorly fitted or top-dose-only effect; inactive means no such curve, though single readings can be large or run the other way. Some of the results follow.

Assay: Primary qHTS for Identification of Small Molecule Inhibitors of Huntingtin Promoter Activity; further: nearly all actives have a fitted effect of over 50% in size
Conditions: HEK293 HTT promoter firefly luciferase reporter (activity 0% = vehicle and -100% = no light), 24 h; series mostly up to 57.5 µM; activity change, negative = inhibition: at the top concentration
Method in brief: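 HEK293 cells carrying firefly luciferase reporters were seeded at 2,500 per well in Opti-MEM and cultured for 24 h. They were then treated with compounds at up to 57.5 uM final for 24 h at 37 degrees C before Dual-Glo luminescence readout.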

Activity change, negative = inhibition, inactive:
CCOC(=O)c1ccc2c(c1)N(CC(=O)Nc1ccc(C)cc1C)C(=O)c1ccccc1S2 -17.2%
COc1ccc(NC(=O)c2nnn(Cc3nc(-c4cc(OC)c(OC)c(OC)c4)oc3C)c2C)cc1 -1.65%
CCN(CC)C(=O)Cn1cc(SCC(=O)Nc2ccccc2F)c2ccccc21 -18.3%
COc1ccc(-c2nc(C(N)=O)c3c(n2)n(-c2ccccc2OC)c(=O)n3C)c(OC)c1 -13.2%
CSc1cccc(NC(=O)C2CCN(c3ncnc4c3nc3n4CCCCC3)CC2)c1 -25.5%
O=C(c1ccc(F)cc1)N1CCC(c2nc3ccccc3o2)CC1 -18.3%
CC(C)NC(=O)CC(=O)Nc1ccc2nc3n(c(=O)c2c1)CCCCC3 -6.76%
N=C(N)N -1.89%
CCOc1ccccc1NC(=O)C(NS(=O)(=O)c1ccc2c(c1)CCC(=O)N2)c1ccccc1 (stereo unspecified) -17.1%
O=C(NC1CCCCCC1)c1cc2c(Cl)nc3ccccc3c2s1 -2.32%
COc1ccc(CNC(=O)c2ccc3c(c2)N(C)C(=O)C2CCCCN32)cc1OC (stereo unspecified) 19.8%
CC(C)(C)c1ccc(Oc2nc3ccccn3c(=O)c2/C=C(\C#N)c2nc3ccccc3[nH]2)cc1 -4.86% [at 11.5 µM]
O=C(CCC(=O)N1CC2CCCN2c2ccccc21)NCc1ccccc1 (stereo unspecified) -13.5%
O=C(NC1CCOCC1)c1ccc(-c2cc(-c3cn[nH]c3-c3ccccn3)ccn2)cc1 1.17%
CCOC(=O)c1ccc(NC(=O)C2=C(C)Nc3nc(SCc4ccc(Cl)cc4)nn3C2c2ccc(C)cc2)cc1 (stereo unspecified) 2.2%
CCOc1ccc(CC(=O)NCCc2csc(-c3ccc(C(F)(F)F)cc3)n2)cc1 -7.9%
Cc1nn(C(=O)COc2ccccc2)c(C)c1Sc1ccccc1 -11.9%
CC(NC(=O)c1nn(C)c2c1CSc1ccccc1-2)c1ccccc1 (stereo unspecified) 21.2%
CC1CCN(C(=O)CN2CCSc3ccccc32)CC1 -7.26%
O=C(Nc1ccc(SC(F)F)cc1)c1cc(-c2cccs2)on1 26.3%
Cc1ccc(-c2cc(NC(=O)C(C)Oc3ccc(C)c(C)c3)on2)cc1 (stereo unspecified) 7.26%
COc1ccc(N2CC(c3nc(-c4cc(OC)c(OC)c(OC)c4)no3)CC2=O)cc1Cl (stereo unspecified) -11.5%
O=C(CCS(=O)(=O)c1cccs1)Nc1ccc(C(=O)Nc2cccc(Cl)c2)cc1 -2.98%
COc1cc(OC)cc(C(=O)N2CCC(c3ccncc3)CC2)c1 -10.8%
Cc1ccc(C)c(NC(=O)CN2C(=O)CSc3nc(C)cc(C)c32)c1 -8.49%
Cc1ccc(CNC(=O)CN(c2ccc(C(C)C)cc2)S(=O)(=O)c2c(C)n[nH]c2C)cc1 -20.3%
CC(C)(C)CC(=O)Nc1nnc2n1CCS2 -2.5%
COc1ccc(Cn2ccnc2SCC(=O)Nc2ccc(C)cc2C)cc1 -9.74%
O=C(COc1ccc(Cl)cc1)Nc1ccccc1C(=O)OCc1cc(=O)n2ccsc2n1 5.67%
CCCC(=O)NCC(c1ccc2c(c1)OCO2)N1CCOCC1 (stereo unspecified) -4%
COc1ccccc1CNC(=O)CN1C(=O)CSc2c1c(C)nn2-c1ccccc1 -9.24%
C/C=C/C(=O)N(CC)c1ccccc1C 5.15%
CC(=O)c1ccc(NS(=O)(=O)c2cc3[nH]c(=O)c(=O)[nH]c3cc2C)cc1 -2.27%
Cc1ccc(C)c(N2CCN(C(=O)Cn3ncc4c(=O)oc5ccc(C)cc5c43)CC2)c1 3.35%
COc1ccc(S(=O)(=O)NCCc2nnc3ccc(SCC(=O)Nc4ccc(C(F)(F)F)cc4)nn23)cc1 -22.7%
CCCn1c(=N)c(C(=O)NCc2cccnc2)cc2c(=O)n3cc(C)ccc3nc21 -1.76%
O=C(c1cnc2cc(-c3ccccc3)nn2c1)c1cc([N+](=O)[O-])ccc1O -11.8%
COc1cccc(/C=C/c2nc(C#N)c(N3CCCCC3)o2)c1 7.44%
O=C(C1CCCN(S(=O)(=O)c2cccc3nonc23)C1)N1CCN(c2cccc(Cl)c2)CC1 (stereo unspecified) -7.48%
CCc1ccc(CSc2nc(-c3ccccc3OC)nc3c2Cc2c(CO)cnc(C)c2O3)cc1 -21.4%
CCOc1ccccc1CNc1ncnc2c1nc1n2CCCC1 -27.9%
CSc1ccc(CCNC(=O)CCc2c(C)nc3c(-c4ccccc4)c(C)nn3c2C)cc1 -34.8%
Cc1ccccc1Cn1nc(C)c(NC(=O)c2cc(-c3ccc(F)cc3)on2)c1C -12.7%
COC(=O)c1ccc2c(=O)n(CCCCCC(=O)NCc3ccccc3)c(=O)[nH]c2c1 -7.35%
Cc1cccc(-n2c3c(cc(-c4nc(-c5ccc(Cl)cc5)cs4)c2=O)C(=O)CC(C)(C)C3)c1 -7.67%
C=C[C@H]1CN2CC[C@H]1C[C@@H]2[C@@H](O)c1ccnc2ccc(OC)cc12 3.49%
O=C(CN1CCSc2ccccc21)N1CCN(c2ccccc2)CC1 0%
CCOC(=O)c1c(NC(=O)/C=C/c2ccc(OC)c(OC)c2)sc(C(C)=O)c1C -7.94%
CCn1cc(C2N3CC4(CC)CN2CC(CC)(C3)C4=O)c2ccccc21 (stereo unspecified) -18.3%
CCOC(=O)c1cnc2cc(C(F)(F)F)ccc2c1N1CCN(c2ccc(F)cc2)CC1 -19.3%
Cc1ccc(Cn2ccn(CC(=O)Nc3ccccc3C(F)(F)F)c(=O)c2=O)cc1 -26.3%
CCOc1ccc(CCNC(=O)CS(=O)Cc2nc(-c3ccc(C)cc3)oc2C)cc1OCC (stereo unspecified) -32.5%
Cc1c(C(N)=O)cc([N+](=O)[O-])cc1[N+](=O)[O-] -9.79%
COC(=O)c1ccccc1NC(=O)CSc1nc(-c2ccccc2)cc(C(F)(F)F)n1 -25.6% [at 11.5 µM]
CC(=O)c1ccc(NC(=O)c2ccc3c(c2)N(Cc2cccc(Cl)c2)C(=O)c2ccccc2S3(=O)=O)cc1 -5.26%
CCOC(=O)c1c(C)[nH]c(C)c1S(=O)(=O)N1CCC(C(=O)Nc2ccc(F)cc2F)CC1 -26.1%
CCOc1ccccc1NC(=O)Cn1c(=O)n(CCCC(=O)NCCOC)c(=O)c2cc(OC)c(OC)cc21 -14.2%
Cc1cc(Cl)ccc1NC(=O)CN1C(=O)CSc2ccc(S(=O)(=O)N(C)C)cc21 -19.9%
CCOCCc1nn2c(=O)cc(COC(=O)COc3ccccc3Cl)nc2s1 -9.43%
Cc1ccc(NC(=O)CN2CCCN(Cc3ccccc3Cl)S2(=O)=O)c(C)c1 -8.99%
COc1ccc(CNC(=O)Cn2ccc3cc(S(=O)(=O)N4CCCCC4)ccc32)c(OC)c1 -23.3%
CCn1c(=O)sc2cc(NC(=O)c3cccc(OC)c3)ccc21 12.8%
CCN1CCN(c2nnc(-n3cccc3C(=O)Nc3cccc(OC)c3)s2)CC1 5.21%
CC(C)c1nn2c(=O)cc(COC(=O)CNC(=O)c3ccccc3Cl)nc2s1 -18.2%
O=C(Cn1ccn(-c2ccc(F)c(F)c2)c(=O)c1=O)c1ccc(F)cc1 -24.4%
CCOc1ccc(Cn2c(CNS(=O)(=O)c3c(C)cc(C)cc3C)nc3cccnc32)cc1 -11.6%
CCC(C)n1c(SCc2ccc(C(C)(C)C)cc2)nc2ccsc2c1=O (stereo unspecified) -4.69%
Cc1ccc(OCc2nc(-c3ccc(C(=O)N4CCN(c5cc(Cl)ccc5C)CC4)cc3)oc2C)cc1 -9.21%
O=S(=O)(c1ccccc1)c1nc(-c2cccs2)oc1SCc1ccccc1Cl -18.2%
Oc1cn2c(n1)Nc1ccc(Cl)c(Cl)c1C2 -6.95% [at 25.2 µM]
CCOC(=O)CC(=O)CSc1nc2ccccc2c(=O)n1-c1ccc(C(=O)NCCOC)cc1 -12.5%
CS(=O)(=O)c1cccc(CNc2nc(Nc3ccc4c(c3)CCC(=O)N4)ncc2C(F)(F)F)c1 11.3%
CCOc1ccccc1NC(=O)CSc1nc2c([nH]c3ccccc32)c(=O)n1-c1ccccc1 -27.6%
O=C(CC1NCCNC1=O)Nc1ccccc1F (stereo unspecified) -15.7%
CCOC(=O)c1c(-c2ccc(C)cc2)csc1NC(=O)c1cc(=O)c2cc(Cl)ccc2o1 0.223%
Cc1ccc(Cl)cc1N1CCN(C(=O)c2cc3c(=O)n(C)c4ccccc4c3s2)CC1 -7.8%
O=C(C1CC1)N1CCc2cc(Br)cc(S(=O)(=O)N3CCN(c4cccc(Cl)c4)CC3)c21 -1%
CCOC(=O)c1cc(-c2ccccc2)n(-c2cccc(C(=O)Nc3cccc(C)c3)c2)c1C -20.4%
Cc1ccc(CSc2ccc3nnc(CCNS(=O)(=O)c4ccc(C)cc4)n3n2)cc1 -24.4%
Cc1cccc(OCC(=O)OCc2cc(=O)n3nc(-c4cccs4)sc3n2)c1 -11.6%
CCc1nn(Cc2cccc(F)c2)c(=O)c2cc3cc(C)ccc3n12 -6.4%
NCC1CCC(C(=O)O)CC1 (stereo unspecified) -12.5%
Cc1ccc(-n2ncc(C(=O)N3CCN(c4ccccn4)CC3)c2C2CCN(C(=O)OC(C)(C)C)CC2)cc1 -0.215%
CCC(C)NC(=O)Cn1c(=O)n(-c2ccc(Cl)c(Cl)c2)c(=O)c2c(C)c(C(=O)N(CC)CC)sc21 (stereo unspecified) 0%
COc1ccc(Nc2c(-c3ccc(C)o3)nc3ccc(Cl)cn23)cc1 6.15%
COC(=O)c1ccccc1NC(=O)Cn1c(=O)nc(-c2ccccc2)c2cc(Cl)ccc21 -9.34%
CCCCCCCCCCC[C@@H](C[C@@H]1OC(=O)[C@H]1CCCCCC)OC(=O)[C@H](CC(C)C)NC=O -5.34%
Cc1cccc(C)c1Nc1c(-c2cccs2)nc2ncccn12 -25%
CCCCC(=O)Nc1cc2nn(-c3ccc(OCC)cc3)nc2cc1C 13.2%
Cc1cccc(Cn2cc(S(=O)(=O)c3ccc(Cl)cc3)c(=O)c3cc4c(cc32)OCO4)c1 -26.7%
CC(=O)c1ccc(NC(=O)c2ccc(NC(=O)CCS(=O)(=O)c3cccs3)cc2)cc1 63.3%
Cn1c(=O)c2c(SCC(=O)NCC3CCCO3)nc(-c3cccc(F)c3)nc2n(C)c1=O (stereo unspecified) -11%
CSc1ncc(C(=O)NCc2ccc(Cl)cc2)c(C(F)(F)F)n1 -11.9%
Cc1nn(-c2ccccc2)c(OC(=O)c2ccc(F)cc2)c1S(=O)(=O)c1ccccc1 -0.701%
CCOC(=O)CSc1nc(-c2ccccc2)cc(C(F)(F)F)c1C#N -3.91%
CCN(C(=O)CCNC(=O)Cn1cnc2ccccc2c1=O)c1cccc(Cl)c1 -3.32%
